Measurements taken from EPA's CvTdb concentration-time database.

Legend:
Mouse [1] = assay: concentration in plasma after dosing; details: 10 min; dosed: Benzophenone; 60 mg/kg; oral; Female; B6C3F1
Mouse [2] = assay: concentration in plasma after dosing; details: 10 min; dosed: Benzophenone; 30 mg/kg; oral; Male; B6C3F1
Rat [3] = assay: concentration in plasma after dosing; details: dosed: Benzophenone, 5 mg/kg, oral, Female, F344
Mouse [4] = assay: concentration in plasma after dosing; details: 0.125 h; dosed: Benzophenone; 15 mg/kg; oral; Female; B6C3F1
Mouse [5] = assay: concentration in plasma after dosing; details: 0.25 h; dosed: Benzophenone; 30 mg/kg; oral; Male; B6C3F1
Mouse [6] = assay: concentration in plasma after dosing; details: 0.125 h; dosed: Benzophenone; 30 mg/kg; oral; Female; B6C3F1
Mouse [7] = assay: concentration in plasma after dosing; details: 0.125 h; dosed: Benzophenone; 15 mg/kg; oral; Female; B6C3F1; remark: listed apart in the source
Rat [8] = assay: concentration in blood after dosing; details: 10 min; dosed: Benzophenone; 5 mg/kg; oral; Male; F344
Mouse [9] = assay: concentration in plasma after dosing; details: 10 min; dosed: Benzophenone; 15 mg/kg; oral; Male; B6C3F1
Mouse [10] = assay: concentration in plasma after dosing; details: 2 h; dosed: Benzophenone; 15 mg/kg; oral; Female; B6C3F1
Mouse [11] = assay: concentration in plasma after dosing; details: 6 h; dosed: Benzophenone; 15 mg/kg; oral; Female; B6C3F1
Mouse [12] = assay: concentration in plasma after dosing; details: 3 h; dosed: Benzophenone; 30 mg/kg; oral; Female; B6C3F1
Rat [13] = assay: concentration in blood after dosing; details: 0.5 h; dosed: Benzophenone; 5 mg/kg; oral; Male; F344
Rat [14] = assay: concentration in blood after dosing; details: 5 min; dosed: Benzophenone; 10 mg/kg; oral; Female; F344
Mouse [15] = assay: concentration in plasma after dosing; details: 2.5 h; dosed: Benzophenone; 15 mg/kg; iv; Male; B6C3F1
Mouse [16] = assay: concentration in plasma after dosing; details: 10 min; dosed: Benzophenone; 15 mg/kg; oral; Male; B6C3F1; remark: listed apart in the source
Rat [17] = assay: concentration in blood after dosing; details: 10 min; dosed: Benzophenone; 10 mg/kg; oral; Male; F344
Mouse [18] = assay: concentration in plasma after dosing; details: 1 h; dosed: Benzophenone; 15 mg/kg; iv; Female; B6C3F1
Mouse [19] = assay: concentration in plasma after dosing; details: 10 min; dosed: Benzophenone; 15 mg/kg; iv; Female; B6C3F1
Mouse [20] = assay: concentration in plasma after dosing; details: 5 min; dosed: Benzophenone; 15 mg/kg; oral; Male; B6C3F1
Mouse [21] = assay: concentration in plasma after dosing; details: 0.5 h; dosed: Benzophenone; 15 mg/kg; iv; Male; B6C3F1
Mouse [22] = assay: concentration in plasma after dosing; details: 2 h; dosed: Benzophenone; 30 mg/kg; oral; Male; B6C3F1
Mouse [23] = assay: concentration in plasma after dosing; details: 3 h; dosed: Benzophenone; 15 mg/kg; iv; Female; B6C3F1
Rat [24] = assay: concentration in plasma after dosing; details: dosed: Benzophenone, 10 mg/kg, oral, Female, F344
Rat [25] = assay: concentration in plasma after dosing; details: dosed: Benzophenone, 5 mg/kg, oral, Male, F344
Rat [26] = assay: concentration in plasma after dosing; details: dosed: Benzophenone, 10 mg/kg, oral, Female, F344; remark: listed apart in the source
Mouse [27] = assay: concentration in plasma after dosing; details: 4 h; dosed: Benzophenone; 15 mg/kg; oral; Female; B6C3F1
Mouse [28] = assay: concentration in plasma after dosing; details: 2 h; dosed: Benzophenone; 15 mg/kg; oral; Female; B6C3F1; remark: listed apart in the source
Mouse [29] = assay: concentration in plasma after dosing; details: 0.75 h; dosed: Benzophenone; 15 mg/kg; oral; Male; B6C3F1
Mouse [30] = assay: concentration in plasma after dosing; details: 10 min; dosed: Benzophenone; 15 mg/kg; oral; Female; B6C3F1
Rat [31] = assay: concentration in plasma after dosing; details: dosed: Benzophenone, 10 mg/kg, oral, Female, F344; remark: listed apart in the source
Mouse [32] = assay: concentration in plasma after dosing; details: 0.5 h; dosed: Benzophenone; 15 mg/kg; oral; Female; B6C3F1
Mouse [33] = assay: concentration in plasma after dosing; details: 0.25 h; dosed: Benzophenone; 30 mg/kg; oral; Female; B6C3F1
Rat [34] = assay: concentration in blood after dosing; details: 0.25 h; dosed: Benzophenone; 5 mg/kg; oral; Female; F344
Mouse [35] = assay: concentration in plasma after dosing; details: 0.5 h; dosed: Benzophenone; 60 mg/kg; oral; Male; B6C3F1
Rat [36] = assay: concentration in blood after dosing; details: 10 min; dosed: Benzophenone; 5 mg/kg; oral; Female; F344
Mouse [37] = assay: concentration in plasma after dosing; details: 2 h; dosed: Benzophenone; 60 mg/kg; oral; Male; B6C3F1
Mouse [38] = assay: concentration in plasma after dosing; details: 1.5 h; dosed: Benzophenone; 15 mg/kg; oral; Female; B6C3F1
Rat [39] = assay: concentration in blood after dosing; details: 5 min; dosed: Benzophenone; 5 mg/kg; oral; Male; F344
Mouse [40] = assay: concentration in plasma after dosing; details: 20 min; dosed: Benzophenone; 15 mg/kg; iv; Male; B6C3F1
Rat [41] = assay: concentration in blood after dosing; details: 0.25 h; dosed: Benzophenone; 5 mg/kg; oral; Female; F344; remark: listed apart in the source
Mouse [42] = assay: concentration in plasma after dosing; details: 10 min; dosed: Benzophenone; 15 mg/kg; iv; Male; B6C3F1
Mouse [43] = assay: concentration in plasma after dosing; details: 0.125 h; dosed: Benzophenone; 60 mg/kg; oral; Male; B6C3F1

O=C(c1ccccc1)c1ccccc1 [Benzophenone]
Details | concentration in blood [ng/mL] | concentration in plasma [ng/mL]
Mouse [1] | – | 2750
Mouse [2] | – | 1350
Mouse [4] | – | 597
Mouse [5] | – | 581
Mouse [6] | – | 926
Mouse [7] | – | 595
Mouse [9] | – | 295
Mouse [10] | – | 132
Mouse [11] | – | 12.6
Mouse [12] | – | 111
Mouse [15] | – | 71.2
Mouse [16] | – | 211
Mouse [18] | – | 412
Mouse [19] | – | 2640
Mouse [20] | – | 292
Mouse [21] | – | 2440
Mouse [22] | – | 162
Mouse [23] | – | 58.8
Mouse [27] | – | 50.4
Mouse [28] | – | 103
Mouse [29] | – | 200
Mouse [30] | – | 529
Mouse [32] | – | 245
Mouse [33] | – | 1500
Mouse [35] | – | 1610
Mouse [37] | – | 408
Mouse [38] | – | 119
Mouse [40] | – | 1760
Mouse [42] | – | 2930
Mouse [43] | – | 3260
Rat [8] | 820 | –
Rat [13] | 637 | –
Rat [14] | 711 | –
Rat [17] | 1410 | –
Rat [34] | 859 | –
Rat [36] | 1260 | –
Rat [39] | 256 | –
Rat [41] | 885 | –

Details | concentration in plasma [ng/mL]
Rat [3], 0.125 h | 177
Rat [3], 3 h | 84.7
Rat [24], 2 h | 280
Rat [24], 5 min | 217
Rat [25], 0.5 h | 160
Rat [25], 10 h | 34.9
Rat [26], 0.125 h | 619
Rat [26], 3 h | 225
Rat [31], 2 h | 249
Rat [31], 5 min | 596
